Screen size: about 340,000 compounds; about 6,900 (2%) were called active. Cut-off read from the data, not from the text of the source: active = inhibition above about 30%; inactive = below that, where a call was filed. The list shows a part of the results, in another mix than the full data. Where no call is shown, the source filed none.
The compounds below were run against D(2) dopamine receptor (Homo sapiens) (UniProt P14416) (assay: HTS Assay for Allosteric Antagonists of the Human D2 Dopamine Receptor: Primary Screen for Antagonists). Details: HEK293 TREx D2 cells, calcium flux, dopamine EC80; at 10 µM; stronger effect = higher value.
UniProt P14416, sequence (P14416 whole entry, looked up): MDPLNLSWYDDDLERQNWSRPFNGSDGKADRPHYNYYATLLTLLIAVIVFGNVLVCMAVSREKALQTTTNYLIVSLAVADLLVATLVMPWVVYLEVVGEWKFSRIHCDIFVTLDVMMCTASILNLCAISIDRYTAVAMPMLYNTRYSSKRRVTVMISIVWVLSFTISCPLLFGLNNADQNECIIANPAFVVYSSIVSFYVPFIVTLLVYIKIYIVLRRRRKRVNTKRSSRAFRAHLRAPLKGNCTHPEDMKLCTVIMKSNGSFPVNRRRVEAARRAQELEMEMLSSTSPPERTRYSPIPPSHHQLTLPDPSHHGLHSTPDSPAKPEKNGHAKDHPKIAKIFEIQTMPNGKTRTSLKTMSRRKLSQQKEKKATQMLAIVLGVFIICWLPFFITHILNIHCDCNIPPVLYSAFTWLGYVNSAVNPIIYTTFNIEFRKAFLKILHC
Outline: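 Cells plated overnight at 30 C with tetracycline; no-wash calcium dye, 30–90 min RT; 10 s baseline; compound pinned; 180 s read; EC80 dopamine added; another 180 s read.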
`C=Cc1ccc(Cn2c(=O)n(-c3cccc(C)c3)c(=O)c3c2c2cc(C)ccc2n3C)cc1` gave an inhibition of 2.52%.
With `CCOc1ccc(OCC(=O)Nc2c(C(=O)Nc3ccc(C)cc3)oc3ccccc23)cc1` the inhibition was 7.02%.
Compound `CCOc1ccc(CNC(=O)c2cnc3sc(N4CCC(C)CC4)nn3c2=O)cc1OC` has an inhibition of -0.241%.
In the case of `Cc1cc(C)c(C#N)c(N2CCN(Cc3ccc4c(c3)OCO4)CC2)n1`, the inhibition is reported as active: 97.8%.
For `COc1cccc(-n2c(=O)c3sc4ccccc4c3n(CC(=O)Nc3cccc(Cl)c3)c2=O)c1`, the inhibition was 5.51%.
`Fc1ccc(CNc2nc3ccc(Cl)cc3n3nnnc23)cc1` was tested, and the inhibition was 4.27%.
`O=S(=O)(Nc1cccc(-c2ccc(N3CCCCC3)nn2)c1)c1ccc(Cl)s1` gave an inhibition of -3.78%.
For `CC1(C(=O)O)CCC(C(=O)Nc2ccc(OC(F)(F)Cl)cc2)C1(C)C` (configuration not stated), the inhibition was active: 42.8%.
Work on `CCOc1ccc(CCNC(=O)c2ccc3nc(CC)c(CC)nc3c2)cc1` yielded an inhibition of -3.65%.
For `COc1ccccc1-c1cc(C(=O)Nc2cc(Cl)ccc2O)no1`, the inhibition was -15.8%.
`CC1CCN(C(=O)Cn2ncc3c4ccccc4n(Cc4ccc(Cl)cc4)c3c2=O)CC1` was tested, and the inhibition was 7.18%.
Work on `COc1ccc(-c2cc(C(=O)NCc3ccccc3)c3c(-c4ccccc4)[nH]nc3n2)cc1` yielded an inhibition of 7.63%.
`COc1ccccc1N1CCN(C(=O)Cc2c(C(=O)O)c(C)cn2C)CC1` showed an inhibition of -15.3%.
For `c1ccc(-n2ncc3c(NC4CCCCCC4)ncnc32)cc1`, the inhibition was active: 46%.
`CCc1ccccc1NC(=O)C1CCCN(c2nnc(-n3c(C)ccc3C)s2)C1` (configuration not stated) showed an inhibition of -12.7%.
`CC(=O)c1ccc(NC(=O)c2cc(-c3ccc(Cl)c(Cl)c3)on2)cc1` was tested, and the inhibition was -26.7%.
In the case of `CCCCSCCCNC(=O)C1CCC(CNS(=O)(=O)c2ccccc2)CC1` (configuration not stated), the inhibition is reported as 13.1%.
`CCn1c(CN2CCOCC2)nc2cc(NC(=O)c3cc(OC)c(OC)c(OC)c3)ccc21` showed an inhibition of 13.3%.
With `CC(=O)c1ccc(NC(=O)C2CCC(CNS(=O)(=O)c3ccc4c(c3)CCCC(=O)N4)CC2)cc1` (configuration not stated) the inhibition was 1.59%.
For `CSc1nn(Cc2ccc(Br)cc2)c(N(C(C)=O)C(C)=O)c1S(=O)(=O)c1ccccc1`, the inhibition was 1.59%.
With `CCc1cccc(NCc2ccccc2-c2nnc(-c3ccccc3Cl)o2)c1` the inhibition was -4.35%.
With `Cc1ccc(-n2ncc(C#N)c2/N=C/N2CCN(C)CC2)cc1` the inhibition was active: 37.3%.
`COc1ccc(-n2c(SCc3ccccc3F)nc3c([nH]c4ccccc43)c2=O)cc1` gave an inhibition of 10.2%.
For `CCOc1ccc(NC(=O)c2ccc(F)c(S(=O)(=O)NCc3ccc4c(c3)OCO4)c2)cc1`, the inhibition was 5.99%.
For `Cc1oc2ncn(CC(C)C)c(=O)c2c1C(=O)NCCCN(Cc1ccccc1)C(C)C`, the inhibition was 14%.
`CCOc1ccc(NC(=O)CSc2nnc(-c3ccc(C)cc3)c(-c3ccc(C)cc3)n2)cc1` was tested, and the inhibition was -3.58%.
In the case of `O=C(NCCCc1nc2ccccc2n1Cc1ccc(Cl)cc1)c1ccco1`, the inhibition is reported as 0.904%.
`O=C(Cn1cc(S(=O)(=O)Cc2ccc(F)cc2)c2ccccc21)NCc1ccccc1Cl` gave an inhibition of 13.7%.
`Cc1ccccc1CSc1nnc2[nH]c(=O)cc(C)n12` was tested, and the inhibition was 4.6%.
`O=C(NC1CC(=O)N(c2ccc(Cl)cc2)C1)c1ccc(S(=O)(=O)N2CCCC2)cc1` (configuration not stated) showed an inhibition of 1.29%.
For `O=C(Cn1c(=O)nc(-c2ccccc2)c2ccccc21)NCCCc1ccccc1`, the inhibition was 28.1%.
`COc1ccc(CCNC(=O)CS(=O)Cc2nc(-c3ccc(C)cc3)oc2C)c(OC)c1` (configuration not stated) was tested, and the inhibition was -1.99%.
`COc1ccc(CCNC(=O)C(=O)NCC(c2ccco2)S(=O)(=O)c2ccccc2)cc1OC` (configuration not stated) showed an inhibition of -23.8%.
`CCc1cccc(C)c1NC(=O)CSc1nnc(N)s1` showed an inhibition of 6.4%.
For `CCOc1ccccc1NS(=O)(=O)c1cnc(N)nc1`, the inhibition was 21.5%.
`Cc1ccc(C(CC(=O)Nc2cc(C)cc(C)c2)N2Cc3ccccc3C2=O)cc1` (configuration not stated) gave an inhibition of 4.96%.
In the case of `CCS(=O)(=O)NCC(c1ccco1)N1CCN(c2ccc(OC)cc2)CC1` (configuration not stated), the inhibition is reported as 10%.
`O=C(c1ccco1)N1CCN(CCCCOc2cccc3ccccc23)CC1` was tested, and the inhibition was active: 83.6%.
Compound `Cc1ccccc1CN1c2ccccc2-c2nc(SCC(=O)NCCc3ccccc3)ncc2S1(=O)=O` has an inhibition of -1.83%.
`CCN(CC)c1ccc(-n2nc3cc(C)c(NC(=O)c4ccccc4F)cc3n2)cc1` gave an inhibition of -7.22%.
Compound `CCCCc1ccc(NC(=O)COc2cccc3c(=O)n(C)ccc23)cc1` has an inhibition of 13.5%.
In the case of `CCOC(=O)c1c(C)c(-c2ccccc2)n(CC(=O)NCCc2ccc(C)cc2)c1C`, the inhibition is reported as 13.8%.
For `Cc1ccc2nc(CSc3nnc(NC(=O)COc4ccccc4)s3)cc(=O)n2c1`, the inhibition was -3.49%.
`CCOC(=O)c1ccc(NC(=O)c2cc(=O)c3cc(CC)ccc3o2)cc1` gave an inhibition of 11.3%.
`Cc1ccc(NC(=O)N2CCC(CN3CCC(C)CC3)CC2)cc1F` was tested, and the inhibition was -3.48%.
With `COc1ccc(-c2cc(C(F)(F)F)nc(SCC(=O)NCCc3ccc(OC)c(OC)c3)n2)cc1` the inhibition was 0.0746%.
In the case of `Cn1c(CN2CCCCC2)nc2cc(NS(=O)(=O)c3ccc(F)cc3)ccc21`, the inhibition is reported as active: 74.4%.
`CCCc1cc(=O)n2[nH]c(-c3ccc(C)cc3)nc2n1` gave an inhibition of -21.1%.
Work on `COc1cccc(CNC(=O)C(NS(=O)(=O)c2ccc3nc(C)sc3c2)C(C)C)c1` (configuration not stated) yielded an inhibition of 8.2%.
Compound `Cc1ccc(NC(=O)C2CCCN(c3nnc(-n4c(C)ccc4C)s3)C2)cc1Cl` (configuration not stated) has an inhibition of 6.43%.
With `CCc1ccc(NC(=O)CN2C(=O)C(c3ccccc3)=NC23CCCCCC3)cc1` the inhibition was -1.89%.
For `CCc1ccc(NC(=O)N(Cc2ccc(C)cc2)Cc2cccn2-c2nnc(N3CCCC3=O)s2)cc1`, the inhibition was 12.1%.
Compound `COc1ccc(S(=O)(=O)N(C)Cc2nc(-c3cccc(C)c3)no2)cc1` has an inhibition of 0.79%.
`O=C(CSc1nc2ccsc2c(=O)n1Cc1ccccc1F)NCc1ccccc1` showed an inhibition of 25.8%.
For `Cc1ccc(S(=O)(=O)N(C)C)cc1NC(=S)Nc1ccc2[nH]c(=O)[nH]c2c1`, the inhibition was active: 48.9%.
Work on `CCc1cccc(-n2nnc(-c3nc(-c4cccs4)no3)c2N)c1` yielded an inhibition of 20.2%.
Compound `CCC(=O)OCCCNc1nc(-c2ccc(Cl)cc2)nc2ccccc12` has an inhibition of -11.4%.
With `CC(=O)N1CCCc2cc(S(=O)(=O)N3CCN(c4ccc(F)cc4)CC3)ccc21` the inhibition was -13.3%.
`COc1cccc(OC)c1C(=O)Nc1cccc(-c2nc3cc(C)cc(C)c3o2)c1` showed an inhibition of 1.25%.
Compound `Clc1ccc2nc(-c3ccc(Br)o3)c(Nc3ccc4c(c3)OCCO4)n2c1` has an inhibition of 9.79%.
With `COc1ccc(NC(=O)c2noc3c2CSc2ccccc2-3)cc1Cl` the inhibition was 1.47%.
Work on `CCC(=O)N1CCc2cc(Br)cc(S(=O)(=O)CCC(=O)NCCc3ccccc3Cl)c21` yielded an inhibition of -11.5%.
`CN1CCN(C(c2cccc(Br)c2)c2sc3nc(-c4ccco4)nn3c2O)CC1` (configuration not stated) showed an inhibition of -13.4%.
For `CCOc1ccc(-c2nonc2NC(=O)c2ccc(C)cc2)cc1OCC`, the inhibition was -1.84%.
In the case of `O=C(Cc1csc2ccccc12)NCc1ccccc1F`, the inhibition is reported as -2.43%.
Compound `CCOc1ccc(-c2nc(SCC(=O)Nc3ccc4c(c3)OCCO4)c(-c3ccc(F)cc3)[nH]2)cc1` has an inhibition of 11%.
Work on `CC1CCc2onc(C(=O)N3CCN(c4cccc(C(F)(F)F)c4)CC3)c2C1` (configuration not stated) yielded an inhibition of 16.2%.
`COc1ccc(-c2nc3ccccc3s2)cc1NC(=O)c1cc2ccccc2o1` gave an inhibition of -2.11%.
With `COc1ccc(-n2nc(C(=O)N(C)C)nc2-c2ccccc2)cc1` the inhibition was active: 31.2%.
In the case of `Cc1ccc(NC(=O)CCNS(=O)(=O)c2cccc3nsnc23)cc1`, the inhibition is reported as -7.78%.
`CN(CC(=O)Nc1ccc(F)cc1F)S(=O)(=O)c1ccc(C(=O)N2CCOCC2)s1` gave an inhibition of 13.1%.
`Cc1cc(C)c(/C=C/c2onc(C)c2S(=O)(=O)N2CCC(C(=O)N3CCN(c4ccc(Cl)cc4)CC3)CC2)c(C)c1` was tested, and the inhibition was 1.25%.
For `Cc1ccc(NC(=O)Cn2c(C)cc(C)c(C#N)c2=O)cc1F`, the inhibition was -27.1%.
`Cc1ccc(C(=O)Nc2nc3n(n2)C(c2ccccc2)C=C(c2ccccc2)N3)cc1` (configuration not stated) was tested, and the inhibition was 7.89%.
`Cc1ccc2cccc(NC(=O)c3ccc(-c4cc(Cl)ccc4Cl)o3)c2n1` was tested, and the inhibition was -11.1%.
With `COc1cc(/C=N/NC(=O)CCC(=O)Nc2ccc(Br)cc2)ccc1O` the inhibition was active: 31.9%.
`Cc1ccc(Cl)cc1N1CCN(C(=O)Cn2cnc3nc4c(cc3c2=O)CCCC4)CC1` gave an inhibition of -15.2%.
Work on `COc1ccc(OC)c(NC(=O)c2ccc3c(c2)c(C)c(C)n3Cc2ccc(F)cc2)c1` yielded an inhibition of 3.62%.
`CCN(CC)C(=O)Cn1c(=O)n(CCCCCC(=O)NCc2ccccc2Cl)c(=O)c2sccc21` was tested, and the inhibition was -3.84%.
In the case of `O=C(NCc1cccc(Br)c1)c1cccn1-c1nnc(N2CCCCC2)s1`, the inhibition is reported as -9.39%.
With `CCn1cc(S(=O)(=O)c2cc(C)cc(C)c2)c(=O)c2cc(F)c(N3CCC(C)CC3)cc21` the inhibition was 10.4%.
With `CCOc1ccc(N(C(=O)c2ccc(C)cc2)S(=O)(=O)c2ccc3c(c2)n(C)c(=O)n3C)cc1` the inhibition was 13.9%.
Work on `Cc1ccc2nc(-c3ccc(C)c(NC(=O)CSc4ccc(Cl)cc4)c3)oc2c1` yielded an inhibition of -23.9%.
In the case of `CCCCn1c(/C=C/c2ccco2)nc2ccccc21`, the inhibition is reported as active: 63.7%.
Work on `NC(=O)c1cc(S(=O)(=O)N2CCCCC2)cs1` yielded an inhibition of 4.81%.
Compound `CCNC(=O)CC1C(=O)N(c2ccc(C)cc2)C(=O)N1Cc1ccc(C)cc1` (configuration not stated) has an inhibition of 2.97%.
`O=C(CCS(=O)(=O)c1ccc2c(c1)NC(=O)CO2)Nc1cccc(C(F)(F)F)c1` gave an inhibition of -6.88%.
For `COc1ccc(CCn2c3c(c(=O)[nH]c2=O)C(NC(=O)c2ccccc2)(C(F)(F)F)C(=O)N3)cc1OC` (configuration not stated), the inhibition was -3.01%.
Compound `COc1ccc(NC(=O)Cn2nnc(C(=O)NCc3ccccc3Cl)c2N)cc1Cl` has an inhibition of -0.385%.
Compound `Oc1ccc(Cl)cc1Nc1nc2ccccc2n2cnnc12` has an inhibition of 3.51%.
Compound `COc1ccc(CNC(=O)CCCc2cn(C)c3ccccc23)c(OC)c1` has an inhibition of 28.1%.
`O=C(CC(c1ccccc1)c1cc(Br)ccc1O)NCC1(c2ccccc2)CCCC1` (configuration not stated) showed an inhibition of -1.29%.
With `CCOC(=O)c1ccc(NC(=O)Cc2ccc(-n3c(CC)nc4cccnc43)cc2)cc1` the inhibition was 5.86%.
In the case of `COc1ccc(NC(=O)CN(C)C(=O)c2cc(C3CC3)nn2-c2ccccc2)cc1`, the inhibition is reported as active: 39.5%.
`COc1ccccc1N(Cc1cc2cccc(C)c2[nH]c1=O)C(=O)c1cccc(Cl)c1` gave an inhibition of -0.673%.
`COC(=O)c1cc2oc(C)cc2n1CC(=O)Nc1ccc(C)cc1C` gave an inhibition of 9.82%.
For `Cc1ccc(/C=C/c2onc(C)c2S(=O)(=O)N2CCC(C(=O)N3CCOc4ccccc43)CC2)cc1`, the inhibition was -7.86%.

Source: PubChem BioAssay AID485344 (National Center for Advancing Translational Sciences (NCATS), 2010)
Note: 0% is about no effect.
